{"source": "PubChem BioAssay AID1460", "about": "(National Center for Advancing Translational Sciences (NCATS), 2008)", "note": "Values joined by “and” are separate entries in the source; they are usually repeats but may differ in a detail not shown here. Identical values can stand only once. Among all 270,000 compounds or so, about 5,800 (2.1%) were called active. Inconclusive means that the source gave no clear call. Such entries were picked first, then a sample of the others. Calls come from the whole dose curve; as a rule, active = well fitted inhibition curve with a large enough effect; inconclusive = small, poorly fitted or top-dose-only effect; inactive = flat fitted curve, though single readings scatter. Where the call is inconclusive, the potency comes from a doubtful curve fit. % is set by controls: 0 for no effect and ±100 for the full control effect; potency is the fitted concentration of half-maximal effect; tags give direction and shape of the fitted curve."}
{"target": "Microtubule-associated protein tau (Homo sapiens) (UniProt P10636)", "sequence (P10636 whole entry, looked up)": "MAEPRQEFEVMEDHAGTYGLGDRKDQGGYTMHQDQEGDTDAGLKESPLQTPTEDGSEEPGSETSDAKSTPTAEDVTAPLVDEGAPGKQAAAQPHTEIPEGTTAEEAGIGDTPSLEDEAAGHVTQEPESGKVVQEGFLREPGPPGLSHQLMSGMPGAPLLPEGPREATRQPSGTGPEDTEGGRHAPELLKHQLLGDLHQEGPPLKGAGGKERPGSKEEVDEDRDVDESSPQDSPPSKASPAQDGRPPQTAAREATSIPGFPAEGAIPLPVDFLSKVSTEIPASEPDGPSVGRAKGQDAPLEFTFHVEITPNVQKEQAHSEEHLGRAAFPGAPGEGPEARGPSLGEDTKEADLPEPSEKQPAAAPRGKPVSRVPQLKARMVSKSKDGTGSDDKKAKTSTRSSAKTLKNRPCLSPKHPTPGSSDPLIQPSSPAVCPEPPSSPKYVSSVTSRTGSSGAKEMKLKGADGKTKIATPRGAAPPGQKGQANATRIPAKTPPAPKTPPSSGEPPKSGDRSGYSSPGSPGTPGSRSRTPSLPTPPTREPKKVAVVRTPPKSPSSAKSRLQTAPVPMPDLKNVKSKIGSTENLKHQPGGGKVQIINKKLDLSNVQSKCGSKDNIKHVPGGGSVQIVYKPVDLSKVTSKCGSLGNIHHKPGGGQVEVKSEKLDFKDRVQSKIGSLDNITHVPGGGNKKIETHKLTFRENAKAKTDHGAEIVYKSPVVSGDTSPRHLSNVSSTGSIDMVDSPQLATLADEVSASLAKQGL", "assay": "qHTS for Inhibitors of Tau Fibril Formation, Thioflavin T Binding; note: nearly all actives have a fitted effect of over 55% in size", "conditions": "recombinant tau K18 P301L, heparin-induced fibrillization, ThT fluorescence; series mostly up to 57.4 µM", "procedure,_shortened": "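ThT emission at 510 nm, taken 1 hr after adding 30 uM dye, quantifies aggregates formed when 20 uM heparin acts on human tau K18 P301L for 6 hr at 37 C.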"}
{"molecule": "COc1ccc(/C=C2\\C(=O)OCc3cc(OC)c(OC)cc32)cc1OC", "Potency": "inconclusive: 28.2 µM [inhibitor, partial curve, poor fit]"}
{"molecule": "CC1(N2CCOCC2)CC2(O)C(=[N+]1[O-])CCc1c2no[n+]1[O-]", "note": "(centres undefined)", "Potency": "inconclusive: 28.2 µM [inhibitor, partial curve]"}
{"molecule": "O=C(COC(=O)c1ccc(NS(=O)(=O)c2cccs2)cc1)NCc1ccco1", "Potency": "inactive"}
{"molecule": "Cc1[nH]nc2c1C(c1cc(Br)cs1)C(C#N)=C(N)O2", "note": "(centres undefined)", "Potency": "inconclusive: 14.1 µM [inhibitor, partial curve]"}
{"molecule": "O=C(OCc1ccccn1)c1ccc(COc2ccccc2Cl)o1", "Potency": "inconclusive: 22.4 µM [inhibitor, partial curve]"}
{"molecule": "Cc1nnc(-c2ccco2)c2cn(-c3cccc(Br)c3)nc12", "Potency": "inconclusive: 35.5 µM [inhibitor, single point]"}
{"molecule": "Nn1c(SCC(=O)Nc2nc3ccccc3s2)nncc1=O", "Potency": "inconclusive: 12.6 µM [inhibitor, partial curve]"}
{"molecule": "O=C(CN1CCCc2ccccc21)N/N=C/c1c(O)ccc2ccccc12", "Potency": "inconclusive: 14.1 µM [inhibitor, partial curve]"}
{"molecule": "CCC(CC)c1nn2c(=O)cc(COc3ccc(NC(=O)c4ccc(Cl)cc4)cc3)nc2s1", "Potency": "inconclusive: 0.224 µM [inhibitor, full curve]"}
{"molecule": "Cc1ccc(OCC(=O)N/N=C/c2ccc([N+](=O)[O-])o2)cc1", "Potency": "inconclusive: 14.1 µM [inhibitor, partial curve]"}
{"molecule": "CC(=O)Nc1ccc(/C=C/c2ccc3c([N+](=O)[O-])cccc3n2)cc1", "Potency": "active: 1.41 µM"}
{"molecule": "O=C(NNC1=C(C(=O)C(F)(F)F)CCC1)c1cccc(Cl)c1", "Potency": "inconclusive: 12.6 µM [inhibitor, partial curve]"}
{"molecule": "Cc1cc(C)n2nc(CC(=O)NCc3ccccc3Cl)nc2n1", "Potency": "inactive"}
{"molecule": "CC(=O)Nc1cccc(-c2nn[nH]n2)c1", "Potency": "inconclusive: 28.2 µM [inhibitor, single point]"}
{"molecule": "COc1cccc(OCc2nc3ccccc3n2CCOc2ccccc2)c1", "Potency": "inactive"}
{"molecule": "CC(C)(C)N1C(=O)[C@H]2[C@H]3[C@H](O)[C@H](O)C/C(=N/OCc4ccccc4)[C@H]3CC[C@@H]2C1=O", "activity, negative = inhibition": "inactive: -7.8% [at 11.5 µM]"}
{"molecule": "CCn1c(C(=O)NCCCN2CCc3ccccc3C2)cc2sccc21", "Potency": "inactive"}
{"molecule": "O=C(Nc1cccc(-c2csc(Nc3ccc(Cl)cc3)n2)c1)c1ccccc1", "Potency": "active: 14.1 µM"}
{"molecule": "CCOc1cc(C2NC(=S)NC(C)=C2C(=O)Nc2ccccc2)ccc1O", "note": "(centres undefined)", "Potency": "inconclusive: 14.1 µM [inhibitor, single point]"}
{"molecule": "Cc1c(C(=O)NC2CCCCC2)sc2nc3ccc(N)cc3n12", "Potency": "inconclusive: 6.31 µM [inhibitor, partial curve]"}
{"molecule": "Cc1nc2ccn(Cc3ccco3)c(=O)c2cc1C(=O)N1CCN(c2ccccc2F)CC1", "Potency": "inactive"}
{"molecule": "CCOC(=O)c1c(C)[nH]c(C)c1S(=O)(=O)N1CCC(C(=O)NCc2ccccc2)CC1", "Potency": "inactive"}
{"molecule": "COC(=O)c1c(NC(=O)CCCOc2ccc(C)cc2)sc2c1C(C(=O)OC)CC2", "note": "(centres undefined)", "Potency": "active: 7.94 µM"}
{"molecule": "CCOC(=O)c1[nH]c(=O)[nH]c1COC(=O)c1cc2ccccc2o1", "Potency": "inconclusive: 39.8 µM [inhibitor, partial curve]"}
{"molecule": "COc1ccc(-c2ccc(NS(=O)(=O)c3ccc(F)c(C(F)(F)F)c3)cc2)nn1", "Potency": "inactive"}
{"molecule": "O=[N+]([O-])c1ccccc1/C=N/Nc1nccnc1Cl", "Potency": "inactive"}
{"molecule": "CCN1/C(=C2\\OC(=S)N(C)C2=O)Sc2ccccc21", "Potency": "inconclusive: 6.31 µM [inhibitor, partial curve]"}
{"molecule": "CC1(C)c2ssc(=S)c2-c2ccccc2N1C(=O)CSC1=NCCS1", "Potency": "inconclusive: 3.55 µM [inhibitor, partial curve, poor fit]"}
{"molecule": "COc1cc(SC)ccc1C(=O)Nc1ccc(Br)cn1", "Potency": "inactive"}
{"molecule": "Cc1ccc2nc(/C(C#N)=C/c3cn[nH]c3-c3ccc(F)cc3)[nH]c2c1", "Potency": "inconclusive: 20 µM [inhibitor, partial curve]"}
{"molecule": "COCc1cc(=O)[nH]c(Nc2nc(C)c3cc(OC)ccc3n2)n1", "Potency": "inconclusive: 3.16 µM [inhibitor, full curve]"}
{"molecule": "N#Cc1nc(COc2ccccc2)oc1N1CCCCCC1", "Potency": "inconclusive: 44.7 µM [inhibitor, partial curve, poor fit]"}
{"molecule": "CC(=O)Nc1ccc2nc(-c3ccncc3)[nH]c2c1", "Potency": "inactive"}
{"molecule": "CCN(CC)CC(=O)Nc1ccc2c(c1)Nc1ccccc1CC2", "Potency": "inconclusive: 15.8 µM [inhibitor, partial curve]"}
{"molecule": "CC(=O)Cn1nnc2sc(-c3ccccc3)cc2c1=O", "Potency": "inconclusive: 7.94 µM [inhibitor, full curve] and inconclusive: 17.8 µM [inhibitor, partial curve]"}
{"molecule": "Cc1cc(=O)n(C(NC(=O)c2ccccc2)C(=O)c2ccccc2)cn1", "note": "(centres undefined)", "Potency": "inconclusive: 20 µM [inhibitor, single point]"}
{"molecule": "CCOC(=O)C(=O)C1C(=O)Nc2ccccc21", "note": "(centres undefined)", "Potency": "inconclusive: 44.7 µM [inhibitor, single point]"}
{"molecule": "COc1ccccc1NC(=O)N1c2ccc(F)cc2CCC1C", "note": "(centres undefined)", "Potency": "inactive"}
{"molecule": "COC(=O)c1ccc(-n2nc(C(F)(F)F)c3c2-c2ccoc2CC3)cc1", "Potency": "inconclusive: 22.4 µM [inhibitor, partial curve]"}
{"molecule": "Oc1c(C2=NCCNC(C(F)(F)F)=C2)ccc2ccccc12", "Potency": "active: 6.31 µM"}
{"molecule": "COc1ccc(Nc2cc(C)nc(NCc3ccccc3)n2)cc1", "Potency": "inconclusive: 35.5 µM [inhibitor, partial curve, poor fit]"}
{"molecule": "Cc1cc2ccccc2n1-c1ccc(C(=O)N2CCCCC2)s1", "Potency": "inconclusive: 10 µM [inhibitor, partial curve]"}
{"molecule": "CCCCNC(=O)Nc1nnc(-c2ccc(Cl)cc2)o1", "Potency": "inactive"}
{"molecule": "CCOC(=O)C1=C(C)N(c2ccc(OC)cc2)C(=O)/C1=C\\c1cccs1", "Potency": "inconclusive: 12.6 µM [inhibitor, partial curve]"}
{"molecule": "Clc1cccc(-c2cc3nc4c(c(N5CCOCC5)n3n2)CCCC4)c1", "Potency": "inconclusive: 28.2 µM [inhibitor, partial curve]"}
{"molecule": "Cc1ccc(-n2ncc3c(=O)n(CC(=O)N4CCN(c5ccccc5)CC4)cnc32)cc1", "Potency": "inconclusive: 11.2 µM [inhibitor, partial curve, poor fit]"}
{"molecule": "Cc1nc(C)c(-c2ccc(SCC(=O)Nc3ccccc3F)nn2)s1", "Potency": "inconclusive: 25.1 µM [inhibitor, partial curve]"}
{"molecule": "CCCN(CCC)CCCNC(=O)Cn1ncc2c3ccccc3n(Cc3ccc(F)cc3)c2c1=O", "Potency": "inactive"}
{"molecule": "CN(C)C(=S)NC(=O)c1cccc(Cl)c1", "Potency": "inactive"}
{"molecule": "CCOC(=O)c1ccc(N2C(=O)c3n[nH]c(-c4cccs4)c3C2c2ccc(C)cc2)cc1", "note": "(centres undefined)", "Potency": "inconclusive: 11.2 µM [inhibitor, partial curve]"}
{"molecule": "COC(=O)c1ccc(CSc2nc3scc(-c4cccs4)c3c(=O)[nH]2)o1", "Potency": "inconclusive: 3.98 µM [inhibitor, partial curve]"}
{"molecule": "Cc1ccc(C(=O)Nc2ccc(F)cc2F)o1", "Potency": "inconclusive: 35.5 µM [inhibitor, single point]"}
{"molecule": "O=C(Cc1nc(-c2ccc([N+](=O)[O-])cc2)cs1)Nc1ccccc1", "Potency": "inconclusive: 4.47 µM [inhibitor, single point]"}
{"molecule": "CC(=O)Oc1c(C)cc(O)c2ccccc12", "Potency": "active: 25.1 µM"}
{"molecule": "O=C1NC(=S)N/C1=C/c1cccc([N+](=O)[O-])c1", "Potency": "inconclusive: 15.8 µM [inhibitor, single point]"}
{"molecule": "Cc1ccccc1NC(=O)c1sc2nc(-c3ccncc3)ccc2c1N", "Potency": "active: 5.01 µM"}
{"molecule": "CC(=O)Cc1nsc(NC(=O)c2ccc(-c3ccccc3Cl)o2)n1", "Potency": "inconclusive: 17.8 µM [inhibitor, partial curve]"}
{"molecule": "Brc1ccc(-c2cc3c(N4CCN(c5ccccc5)CC4)nccn3n2)cc1", "Potency": "inactive"}
{"molecule": "CCOc1ccc(/C=C2\\SC(=S)N(Nc3ccccc3)C2=O)cc1OC", "Potency": "inconclusive: 4.47 µM [inhibitor, full curve, poor fit]"}
{"molecule": "O=C(c1cc2ccccc2o1)N1CCCC1", "Potency": "inconclusive: 7.08 µM [inhibitor, partial curve, poor fit]"}
{"molecule": "O=C(Nc1cccc([N+](=O)[O-])c1)Nc1ccc2c(c1)OCCO2", "Potency": "inconclusive: 7.08 µM [inhibitor, partial curve, poor fit]"}
{"molecule": "c1ccc2c(N3CCCCCC3)nc(-c3ccncc3)nc2c1", "Potency": "inconclusive: 31.6 µM [inhibitor, partial curve]"}
{"molecule": "COc1cccc(-c2csc(NNC(=O)c3cccs3)n2)c1", "Potency": "inconclusive: 12.6 µM [inhibitor, partial curve]"}
{"molecule": "Cc1c(CNCc2cccs2)c(C(=O)O)c(C)n1Cc1ccccc1", "Potency": "inconclusive: 39.8 µM [inhibitor, single point]"}
{"molecule": "CCCCCCn1c(C)nc2c(c1=O)c1nc3ccccc3nc1n2/N=C/c1ccco1", "Potency": "inconclusive: 39.8 µM [inhibitor, single point]"}
{"molecule": "Cc1ccc(C)c2[nH]c(=O)c(C(c3nnnn3C(C)(C)C)N3CC=C(c4ccc(F)cc4)CC3)cc12", "note": "(centres undefined)", "Potency": "inconclusive: 22.4 µM [inhibitor, single point]"}
{"molecule": "Cc1ccc(S(=O)(=O)NN2C(=O)/C(=C/c3ccccn3)SC2=S)cc1", "Potency": "inconclusive: 17.8 µM [inhibitor, single point]"}
{"molecule": "OC1(c2ccc(F)cc2)CN(c2ccccc2)C2=[N+]1CCS2", "note": "(centres undefined)", "Potency": "inconclusive: 10 µM [inhibitor, partial curve]"}
{"molecule": "CCCCn1c(COc2cccc(OC)c2)nc2ccccc21", "Potency": "inconclusive: 35.5 µM [inhibitor, single point]"}
